Laboratory results published in PubChem BioAssay (NCI).
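Each compound was tested at five concentrations against cells in 96-well plates for 48 hours. At the GI50, growth is halved.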 A number of entries come with more than one value. This list holds those alone. There may be further records. For some assays here: A record mostly stands for its own series of concentrations, not given here; a value can be the end of its range. Brackets tell where a record comes from. A, B and so on number the origins entry by entry. For some assays here: The records of an entry repeat one measurement (runs, samples, wells, individuals or studies).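 The concentration for full growth arrest is given as TGI.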

Tests used:
Experiment in all cases: NCI tumour cell line growth inhibition, 48 h
OVCAR-4 ovarian = tested on: OVCAR-4 ovarian
SNB-78 CNS = tested on: SNB-78 CNS
MOLT-4 leukemia = tested on: MOLT-4 leukemia
BT-549 breast = tested on: BT-549 breast
OVCAR-3 ovarian = tested on: OVCAR-3 ovarian
HCT-15 colon = tested on: HCT-15 colon
EKVX NSCLC = tested on: EKVX NSCLC
KM20L2 colon = tested on: KM20L2 colon
SW-620 colon = tested on: SW-620 colon
SK-MEL-28 melanoma = tested on: SK-MEL-28 melanoma
SK-MEL-2 melanoma = tested on: SK-MEL-2 melanoma
SK-OV-3 ovarian = tested on: SK-OV-3 ovarian
NCI-H460 lung = tested on: NCI-H460 lung
RXF 393 renal = tested on: RXF 393 renal
M19-MEL melanoma = tested on: M19-MEL melanoma
LOX IMVI melanoma = tested on: LOX IMVI melanoma
CAKI-1 renal = tested on: CAKI-1 renal
SN12C renal = tested on: SN12C renal
SF-539 CNS = tested on: SF-539 CNS
NCI-H522 lung = tested on: NCI-H522 lung
COLO 205 colon = tested on: COLO 205 colon
SR leukemia = tested on: SR leukemia
HS 578T breast = tested on: HS 578T breast
K-562 leukemia = tested on: K-562 leukemia
SNB-19 CNS = tested on: SNB-19 CNS
DU-145 prostate = tested on: DU-145 prostate
OVCAR-8 ovarian = tested on: OVCAR-8 ovarian
MALME-3M melanoma = tested on: MALME-3M melanoma
HCT-116 colon = tested on: HCT-116 colon
SF-268 CNS = tested on: SF-268 CNS
M14 melanoma = tested on: M14 melanoma
MCF7 breast = tested on: MCF7 breast
RPMI-8226 leukemia = tested on: RPMI-8226 leukemia
HT29 colon = tested on: HT29 colon
A498 renal = tested on: A498 renal
786-0 renal = tested on: 786-0 renal
NCI/ADR-RES ovarian = tested on: NCI/ADR-RES ovarian
DLD-1 colon = tested on: DLD-1 colon
UACC-257 melanoma = tested on: UACC-257 melanoma
SNB-75 CNS = tested on: SNB-75 CNS
HL-60(TB) leukemia = tested on: HL-60(TB) leukemia
IGROV1 ovarian = tested on: IGROV1 ovarian
A549 NSCLC = tested on: A549 NSCLC
KM12 colon = tested on: KM12 colon
SK-MEL-5 melanoma = tested on: SK-MEL-5 melanoma
SF-295 CNS = tested on: SF-295 CNS
HOP-92 NSCLC = tested on: HOP-92 NSCLC
NCI-H23 lung = tested on: NCI-H23 lung
UACC-62 melanoma = tested on: UACC-62 melanoma
HCC-2998 colon = tested on: HCC-2998 colon

COc1cc([C@@H]2c3cc4c(c(O)c3C[C@H]3COC(=O)[C@@H]32)OCO4)cc(OC)c1OC
TGI (OVCAR-4 ovarian): 22.8 µM, > 241 µM [sample A] and > 100 µM [sample B]
TGI (SNB-78 CNS): 1.5 nM and 133 µM
TGI (MOLT-4 leukemia): 150 nM, > 241 µM [sample A] and > 58.3 µM [sample B]
GI50 (BT-549 breast): 2.37 nM, 56.5 µM [sample A, 1 test] and 390 nM [sample B, mean of 2 tests]
TGI (BT-549 breast): 375 nM, 228 µM [sample A, 1 test] and > 90.8 µM [sample B, mean of 2 tests]
TGI (OVCAR-3 ovarian): 1.5 nM, 6.52 nM, 72.1 nM, 1.27 µM [sample A] and 282 nM [sample B]
TGI (HCT-15 colon): 1.5 nM, 7.46 nM, 15 µM [sample A] and > 100 µM [sample B]
TGI (EKVX NSCLC): 23.8 µM, > 241 µM [sample A] and > 100 µM [sample B]
GI50 (KM20L2 colon): 1.5 nM [1 test] and 30.8 nM [mean of 4 tests]
TGI (SW-620 colon): 1.5 nM, 150 µM, > 241 µM [sample A] and > 100 µM [sample B]
TGI (SK-MEL-28 melanoma): 1.5 nM, > 241 µM [1 test] and 150 µM [mean of 5 tests]
TGI (SK-MEL-2 melanoma): 0.464 nM, 103 µM, 91.1 µM [sample A] and > 100 µM [sample B]
TGI (SK-OV-3 ovarian): 1.5 nM [sample A, 1 test] and 274 nM [sample A, mean of 2 tests] and 143 µM [sample A, mean of 3 tests] and > 100 µM [sample B, mean of 2 tests]
TGI (NCI-H460 lung): 1.5 nM, 15.4 µM, 34.8 µM
TGI (RXF 393 renal): 1.7 µM [sample A, mean of 2 tests] and 122 nM [sample A, mean of 4 tests] and > 100 µM [sample B, 1 test]
TGI (M19-MEL melanoma): 1.5 nM and 150 µM
TGI (LOX IMVI melanoma): 0.15 nM, 3.42 nM, 22.1 µM, 150 µM, > 241 µM [sample A] and > 100 µM [sample B]
TGI (CAKI-1 renal): 1.5 nM, 189 nM, 132 µM [sample A] and > 100 µM [sample B]
TGI (SN12C renal): 1.5 nM, 1.5 µM, > 241 µM [sample A] and > 100 µM [sample B]
TGI (SF-539 CNS): 0.098 nM, 11.7 nM, < 24.1 nM [sample A, 1 test] and 300 nM [sample B, mean of 2 tests]
TGI (NCI-H522 lung): 0.0724 nM, 0.391 nM, 76.2 nM [sample A] and > 100 µM [sample B]
TGI (COLO 205 colon): 1.5, 122, 12.9, 25.7, 24.4 nM [sample A] and 1.29 µM [sample B]
TGI (SR leukemia): 7.99 µM, > 241 µM [sample A] and > 100 µM [sample B]
GI50 (HS 578T breast): 0.311 nM [sample A, 1 test] and 585 nM [sample B, 1 test]
TGI (HS 578T breast): 0.936 nM, 68.2 µM [sample A] and > 100 µM [sample B]
TGI (K-562 leukemia): 0.643 nM, 59.5 µM, > 241 µM [sample A] and > 100 µM [sample B]
TGI (SNB-19 CNS): 1.5 nM, 6.96 µM, > 241 µM [sample A] and > 100 µM [sample B]
GI50 (DU-145 prostate): 2.09 nM [sample A, 1 test] and 294 nM [sample B, mean of 2 tests]
TGI (DU-145 prostate): 6 nM, < 24.1 nM [sample A] and 4.77 µM [sample B]
GI50 (OVCAR-8 ovarian): 1.83 nM [sample A, 1 test] and 271 nM [sample B, mean of 2 tests]
TGI (OVCAR-8 ovarian): 5.83 nM, 85.5 µM [sample A] and > 100 µM [sample B]
TGI (MALME-3M melanoma): 1.5 nM, 120 µM, 156 µM [sample A] and > 100 µM [sample B]
TGI (HCT-116 colon): 1.5 nM, 25.8 nM, 23.8 µM, < 24.1 nM [sample A] and > 100 µM [sample B]
TGI (SF-268 CNS): 1.5 nM, 8.57 nM, 24.6 µM, > 241 µM [sample A] and > 100 µM [sample B]
GI50 (M14 melanoma): 1.54 nM [sample A, 1 test] and 103 nM [sample B, mean of 2 tests]
TGI (MCF7 breast): 1.5 nM, 10.2 µM, 113 µM [sample A] and > 100 µM [sample B]
GI50 (RPMI-8226 leukemia): 0.993 nM [1 test] and 24.1 nM [mean of 2 tests]
TGI (HT29 colon): 994 nM [sample A, 1 test] and 17.9 µM [sample A, mean of 2 tests] and 7.89 µM [sample B, mean of 2 tests]
GI50 (A498 renal): 0.563 nM [sample A, 1 test] and 305 nM [sample B, mean of 2 tests]
GI50 (786-0 renal): 4.65 nM [sample A, 1 test] and 413 nM [sample B, mean of 2 tests]
GI50 (NCI/ADR-RES ovarian): 0.0232 nM, 0.29 nM [sample A, 1 test] and 203 nM [sample B, 1 test]
TGI (NCI/ADR-RES ovarian): 0.112 nM, 1.33 nM [sample A, 1 test] and > 100 µM [sample B, 1 test]
TGI (DLD-1 colon): 1.5 nM and 150 µM
TGI (UACC-257 melanoma): 239 µM [sample A, mean of 2 tests] and 8.44 µM [sample A, mean of 4 tests] and > 100 µM [sample B, 1 test]
TGI (SNB-75 CNS): 956 nM, 15 µM, 156 µM [sample A] and > 100 µM [sample B]
TGI (HL-60(TB) leukemia): 103 nM, 2.15 µM, > 241 µM
TGI (IGROV1 ovarian): 1.5 nM, 140 µM, > 241 µM [sample A] and > 100 µM [sample B]
TGI (A549 NSCLC): 1.5 nM, 150 µM, > 241 µM [sample A] and > 100 µM [sample B]
TGI (KM12 colon): 0.332 nM, 23.8 µM, < 24.1 nM
TGI (SK-MEL-5 melanoma): 0.551 nM, 348 nM [sample A, 1 test] and 1.02 µM [sample A, mean of 2 tests] and 466 nM [sample B, mean of 2 tests]
TGI (SF-295 CNS): 1.5 nM, 2.37 nM [sample A, 1 test] and > 100 µM [sample B, 1 test]
TGI (HOP-92 NSCLC): 134 nM, 48.3 µM [sample A] and > 100 µM [sample B]
GI50 (NCI-H23 lung): 0.0845 nM, 1.25 nM [sample A, 1 test] and 643 nM [sample A, mean of 2 tests] and 273 nM [sample B, mean of 2 tests]
TGI (NCI-H23 lung): 1.5 nM, 5.29 nM [sample A, 1 test] and 91.3 µM [sample A, mean of 2 tests] and > 100 µM [sample B, mean of 2 tests]
TGI (UACC-62 melanoma): 1.5 nM, 246 nM, 129 µM [sample A, 1 test] and 150 µM [sample A, mean of 5 tests] and > 100 µM [sample B, 1 test]
TGI (HCC-2998 colon): 6.96 µM, < 24.1 nM [sample A] and > 100 µM [sample B]
